# Measurements: ChEMBL document CHEMBL6096640, “Discovery of novel thiosemicarbazone-acridine targeting butyrylcholinesterase with antioxidant, metal complexing and neuroprotector abilities as potential treatment of Alzheimer's disease: In vitro, in vivo, and in silico studies” (Eur J Med Chem, 2025)
# Assays:
# Conditions in all cases: Electrophorus electricus
# [1] = tested on: O=[N+]([O-])c1ccc(/C=N/NC(=S)Nc2c3ccccc3nc3ccccc23)cc1; experiment: Inhibition of electric eel AChE using acetylthiocholine iodide as substrate assessed as Vmax at 7 uM preincubated for 10 mins followed by substrate addition by Lineweaver-Burk plot analysis (reference value: […] +/- […] uM/min)
# [2] = tested on: S=C(N/N=C/c1ccccc1)Nc1c2c(nc3ccccc13)CCCC2; experiment: Inhibition of electric eel AChE using acetylthiocholine iodide as substrate assessed as Km at 16 uM preincubated for 10 mins followed by substrate addition by Lineweaver-Burk plot analysis (reference value: […] +/- […] uM)
# [3] = tested on: S=C(N/N=C/c1ccccc1)Nc1c2ccccc2nc2ccccc12; experiment: Inhibition of electric eel AChE using acetylthiocholine iodide as substrate assessed as Km at 1.5 uM preincubated for 10 mins followed by substrate addition by Lineweaver-Burk plot analysis (reference value: […] +/- […] uM)
# [4] = tested on: S=C(N/N=C/c1ccccc1)Nc1c2c(nc3ccccc13)CCCC2; experiment: Inhibition of electric eel AChE using acetylthiocholine iodide as substrate assessed as Km at 11 uM preincubated for 10 mins followed by substrate addition by Lineweaver-Burk plot analysis (reference value: […] +/- […] uM)
# [5] = tested on: O=[N+]([O-])c1ccc(/C=N/NC(=S)Nc2c3ccccc3nc3ccccc23)cc1; experiment: Inhibition of electric eel AChE using acetylthiocholine iodide as substrate assessed as Km at 10 uM preincubated for 10 mins followed by substrate addition by Lineweaver-Burk plot analysis (reference value: […] +/- […] uM)
# [6] = tested on: S=C(N/N=C/c1ccccc1)Nc1c2c(nc3ccccc13)CCCC2; experiment: Inhibition of electric eel AChE using acetylthiocholine iodide as substrate assessed as Vmax at 16 uM preincubated for 10 mins followed by substrate addition by Lineweaver-Burk plot analysis (reference value: […] +/- […] microM/min)
# [7] = tested on: S=C(N/N=C/c1ccccc1)Nc1c2ccccc2nc2ccccc12; experiment: Inhibition of electric eel AChE using acetylthiocholine iodide as substrate assessed as Vmax at 1.5 uM preincubated for 10 mins followed by substrate addition by Lineweaver-Burk plot analysis (reference value: […] +/- […] uM/min)
# [8] = tested on: O=[N+]([O-])c1ccc(/C=N/NC(=S)Nc2c3ccccc3nc3ccccc23)cc1; experiment: Inhibition of electric eel AChE using acetylthiocholine iodide as substrate assessed as Vmax at 10 uM preincubated for 10 mins followed by substrate addition by Lineweaver-Burk plot analysis (reference value: […] +/- […] uM/min)
# [9] = tested on: S=C(N/N=C/c1ccccc1)Nc1c2ccccc2nc2ccccc12; experiment: Inhibition of electric eel AChE using acetylthiocholine iodide as substrate assessed as Vmax at 4 uM preincubated for 10 mins followed by substrate addition by Lineweaver-Burk plot analysis (reference value: […] +/- […] uM/min)
# [10] = tested on: S=C(N/N=C/c1ccccc1)Nc1c2ccccc2nc2ccccc12; experiment: Inhibition of electric eel AChE using acetylthiocholine iodide as substrate assessed as Km at 4 uM preincubated for 10 mins followed by substrate addition by Lineweaver-Burk plot analysis (reference value: […] +/- […] uM)
# [11] = tested on: O=[N+]([O-])c1ccc(/C=N/NC(=S)Nc2c3ccccc3nc3ccccc23)cc1; experiment: Inhibition of electric eel AChE using acetylthiocholine iodide as substrate assessed as Km at 7 uM preincubated for 10 mins followed by substrate addition by Lineweaver-Burk plot analysis (reference value: […] +/- […] uM)
# [12] = tested on: S=C(N/N=C/c1ccccc1)Nc1c2c(nc3ccccc13)CCCC2; experiment: Inhibition of electric eel AChE using acetylthiocholine iodide as substrate assessed as Vmax at 11 uM preincubated for 10 mins followed by substrate addition by Lineweaver-Burk plot analysis (reference value: […] +/- […] microM/min)
substance,measurement,setting,value
Acetylcholinesterase (Electrophorus electricus) (sequence left out),Vmax,[1],6.75 µM/min
same,Km,[2],46.5 µM
same,Km,[3],67.6 µM
same,Km,[4],43.4 µM
same,Km,[5],78.3 µM
same,Vmax,[6],1.07 µM/min
same,Vmax,[7],9.33 µM/min
same,Vmax,[8],4.41 µM/min
same,Vmax,[9],5.38 µM/min
same,Km,[10],68.2 µM
same,Km,[11],78.4 µM
same,Vmax,[12],1.47 µM/min
